Source: US8119642B2, “Structurally rigid dopamine D3 receptor selective ligands and process for making them” (The United States of America as represented by the …, priority 2002, dated 2012)
At least one structure is not confirmed: it was looked up by name or label, or the drawing left a doubt.

biological target: T1, human D3 dopamine receptor (Homo sapiens, UniProt P35462); assay: Binding in cloned human D3 receptors in HEK cells; conditions: ratio of D2 to D3 binding values
T1 construct: expressed in transfected cells
T1 sequence (P35462 whole entry): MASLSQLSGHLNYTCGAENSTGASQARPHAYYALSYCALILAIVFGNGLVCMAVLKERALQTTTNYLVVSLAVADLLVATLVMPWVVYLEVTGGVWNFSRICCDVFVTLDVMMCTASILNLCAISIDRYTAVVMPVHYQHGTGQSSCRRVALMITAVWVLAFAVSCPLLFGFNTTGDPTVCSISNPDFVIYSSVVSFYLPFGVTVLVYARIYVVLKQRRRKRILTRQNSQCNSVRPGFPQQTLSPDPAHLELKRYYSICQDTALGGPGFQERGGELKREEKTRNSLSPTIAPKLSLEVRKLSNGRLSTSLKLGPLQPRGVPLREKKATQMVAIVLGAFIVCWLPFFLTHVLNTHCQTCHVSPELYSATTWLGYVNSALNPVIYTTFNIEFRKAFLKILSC
Excerpt: Human dopamine D2-long (“D2”) and D3 ([…]) receptors were expressed in HEK cells. In brief, stably transfected HEK cells expressing the human D2-long and the D3 dopamine receptor were developed using the pIRES bicistronic expression vector (CLONTECH; Palo Alto, Calif.). […] For comparison, human dopamine D4 (“D4”) receptors were obtained from HEK 293 cells stably transfected with a PCR product o'f a human cDNA coding for the D4.4 form of the human D4 dopamine receptor.

**Q.** Which D2/D3 does the source give for `Nc1cccc(C(=O)NC/C=C/CN2CCN(c3cccc(Cl)c3Cl)CC2)c1` [PG01026] here?
**A.** The D2/D3 was 14.

**Q.** `O=C(NC/C=C/CN1CCN(c2cccc(Cl)c2Cl)CC1)c1ccc([N+](=O)[O-])cc1` [EEC 027] was tested. Which D2/D3 did it give?
**A.** The D2/D3 was 33.

**Q.** With `O=C(NC/C=C/CN1CCN(c2cccc(Cl)c2Cl)CC1)c1ccccc1O` [PG01025] as the compound, how does the D2/D3 read?
**A.** Its D2/D3 is 9.

**Q.** For `O=C(NC/C=C/CN1CCN(c2cccc(Cl)c2Cl)CC1)c1ccc(F)cc1` [PG01012], which D2/D3 is on record?
**A.** Its D2/D3 is 8.

**Q.** `O=C(NC/C=C/CN1CCN(c2cccc(Cl)c2Cl)CC1)c1ccccc1Cl` [PG01009] was tested. Which D2/D3 did it give?
**A.** Its D2/D3 is 10.

**Q.** Which D2/D3 does the source give for `O=C(NC/C=C/CN1CCN(c2cccc(Cl)c2Cl)CC1)c1ccccc1I` [PG01018] here?
**A.** Its D2/D3 is 3.

**Q.** Which D2/D3 does the source give for `COc1ccccc1C(=O)NC/C=C/CN1CCN(c2cccc(Cl)c2Cl)CC1` [PG01027] here?
**A.** The D2/D3 was 9.

**Q.** Which D2/D3 does the source give for `O=C(NC/C=C/CN1CCN(c2cccc(Cl)c2Cl)CC1)c1cccc(I)c1` [EEC 019] here?
**A.** Its D2/D3 is 7.

**Q.** `O=C(NC/C=C/CN1CCN(c2cccc(Cl)c2Cl)CC1)c1ccc(Cl)cc1` [PG01007] was tested. Which D2/D3 did it give?
**A.** Its D2/D3 is 16.

**Q.** `Nc1ccccc1C(=O)NC/C=C/CN1CCN(c2cccc(Cl)c2Cl)CC1` [PG01038] was tested. Which D2/D3 did it give?
**A.** The D2/D3 was 9.

**Q.** How did the D2/D3 turn out when `O=C(NC/C=C/CN1CCN(c2cccc(Cl)c2Cl)CC1)c1cccc([N+](=O)[O-])c1` [PG01013] was run?
**A.** Its D2/D3 is 10.

**Q.** How did the D2/D3 turn out when `COc1cccc(C(=O)NC/C=C/CN2CCN(c3cccc(Cl)c3Cl)CC2)c1` [EEC 069] was run?
**A.** The D2/D3 was 14.

**Q.** How did the D2/D3 turn out when `O=C(NCC#CCN1CCN(c2cccc(Cl)c2Cl)CC1)c1ccc2c(c1)Cc1ccccc1-2` [JJC 2-078] was run?
**A.** The D2/D3 was 40.

**Q.** Which D2/D3 does the source give for `O=C(NC/C=C/CN1CCN(c2cccc(Cl)c2Cl)CC1)c1ccccc1F` [PG01014] here?
**A.** Its D2/D3 is 8.

**Q.** How did the D2/D3 turn out when `O=C(NC/C=C/CN1CCN(c2cccc(Cl)c2Cl)CC1)c1cccc(F)c1` [PG01011] was run?
**A.** Its D2/D3 is 5.
